Source: the supplement of paper PMC4967469

Compound: FC(F)c1nc2ccccc2n1-c1nc(N2CCOCC2)nc(N2CCOCC2)n1 [ZSTK474]
Test: Viability of human cancer cell lines after 72 h of drug (GDSC screen)
Experimental: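 Human cancer cell lines in 384-well plates, medium with 10% serum, drug for 72 h over a 256-fold dose range (nine 2-fold or five 4-fold steps up to the top dose). Adherent lines were fixed and stained with the nucleic acid dye Syto60, suspension lines read with resazurin; signal relative to control wells, capped at 0 and 100%. One two-parameter sigmoid per drug and line, fitted in a mixed model over all curves with the slope shared within a line.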

Row | Cell Line | AUC | IC50 [nM]
1 | LU-135 (small cell lung carcinoma, suspension, top dose 5.12 µM) | 0.969 | > 5120
2 | LU-139 (small cell lung carcinoma, suspension, top dose 5.12 µM) | 0.786 | 2910
3 | LU-165 (small cell lung carcinoma, suspension, top dose 5.12 µM) | 0.868 | > 5120
4 | LXF-289 (lung adenocarcinoma, adherent, top dose 5.12 µM) | 0.757 | 1740
5 | LoVo (large intestine, adherent, top dose 5.12 µM) | 0.925 | > 5120
6 | M14 (melanoma, adherent, top dose 5.12 µM) | 0.955 | > 5120
7 | M059J (glioma, adherent, top dose 5.12 µM) | 0.803 | 2800
8 | MC116 (B-cell lymphoma, suspension, top dose 5.12 µM) | 0.449 | 241
9 | MC-CAR (haematopoietic neoplasm, suspension, top dose 5.12 µM) | 0.301 | 94.8
10 | MC-IXC (neuroblastoma, adherent, top dose 5.12 µM) | 0.908 | 3660
11 | MCF7 (breast, adherent, top dose 5.12 µM) | 0.986 | > 5120
12 | MDA-MB-157 (breast, adherent, top dose 5.12 µM) | 0.978 | > 5120
13 | MDA-MB-175-VII (breast, adherent, top dose 5.12 µM) | 0.617 | 695
14 | MDA-MB-231 (breast, adherent, top dose 5.12 µM) | 0.929 | > 5120
15 | MDA-MB-330 (breast, adherent, top dose 5.12 µM) | 0.824 | 3610
16 | MDA-MB-361 (breast, adherent, top dose 5.12 µM) | 0.687 | 1060
17 | MDA-MB-415 (breast, adherent, top dose 5.12 µM) | 0.898 | > 5120
18 | MDA-MB-436 (breast, adherent, top dose 5.12 µM) | 0.937 | > 5120
19 | MDA-MB-453 (breast, adherent, top dose 5.12 µM) | 0.551 | 448
20 | MDST8 (large intestine, adherent, top dose 5.12 µM) | 0.867 | 4570

Row | Cell Line | AUC | IC50 [nM]
21 | ME-1 (acute myeloid leukaemia, suspension, top dose 5.12 µM) | 0.924 | > 5120
22 | ME-180 (cervix, adherent, top dose 5.12 µM) | 0.586 | 556
23 | MEG-01 (chronic myeloid leukaemia, suspension, top dose 5.12 µM) | 0.744 | 1520
24 | MEL-JUSO (melanoma, adherent, top dose 5.12 µM) | 0.792 | 2640
25 | MES-SA (uterus, adherent, top dose 5.12 µM) | 0.868 | 3560
26 | MFE-280 (endometrium, adherent, top dose 5.12 µM) | 0.566 | 509
27 | MFE-296 (endometrium, adherent, top dose 5.12 µM) | 0.83 | 3530
28 | MFE-319 (endometrium, adherent, top dose 5.12 µM) | 0.78 | 2040
29 | MFH-ino (soft tissue, adherent, top dose 5.12 µM) | 0.825 | 3800
30 | MFM-223 (breast, adherent, top dose 5.12 µM) | 0.921 | > 5120
31 | MG-63 (osteosarcoma, adherent, top dose 5.12 µM) | 0.977 | > 5120
32 | MHH-ES-1 (Ewing sarcoma, adherent, top dose 5.12 µM) | 0.493 | 305
33 | MHH-NB-11 (neuroblastoma, adherent, top dose 5.12 µM) | 0.935 | > 5120
34 | MHH-PREB-1 (B-cell leukaemia, suspension, top dose 5.12 µM) | 0.611 | 624
35 | MIA-PaCa-2 (pancreas, adherent, top dose 5.12 µM) | 0.908 | > 5120
36 | MKN1 (stomach, adherent, top dose 5.12 µM) | 0.76 | 1890
37 | MKN28 (stomach, adherent, top dose 5.12 µM) | 0.935 | > 5120
38 | MKN45 (stomach, adherent, top dose 5.12 µM) | 0.746 | 2000
39 | ML-1 (thyroid, adherent, top dose 5.12 µM) | 0.875 | > 5120

A lower IC50 marks a more sensitive line; a fit beyond the top or the lowest dose is shown as a bound at that dose. The AUC spans the tested range (256-fold, ending at the top dose) of the same fit; it is 1 without any effect and falls as sensitivity rises.
